{
  "source": "PubChem BioAssay AID995",
  "about": "(National Center for Advancing Translational Sciences (NCATS), 2007)",
  "note": "Values joined by “and” are separate entries in the source; they are usually repeats but may differ in a detail not shown here. Identical values can stand only once. The campaign covered roughly 72,000 compounds. About 710 (0.99%) were called active. The shares of active, inactive and inconclusive entries below differ from those in the screen. Calls come from the whole dose curve; as a rule, active = well fitted inhibition curve with a large enough effect; inconclusive = small, poorly fitted or top-dose-only effect; inactive = no such curve, though single readings can be large or run the other way. Potencies of inconclusive entries are doubtful fits and often do not repeat. % is set by controls: 0 for no effect and ±100 for the full control effect; potency is the fitted concentration of half-maximal effect; tags give direction and shape of the fitted curve.",
  "data": [
    {"assay": "qHTS Assay for Inhibitors of the ERK Signaling Pathway using a Homogeneous Screening Assay; note: nearly all actives have a fitted effect of over 55% in size", "conditions": "HEK293-V1b, vasopressin-stimulated pERK AlphaScreen; activity, negative = inhibition: at 57.5 µM (top of the series) unless noted", "procedure,_shortened": "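Phosphorylated ERK1/2 detected via AlphaScreen bead proximity in lysates of V1b-expressing HEK293 cells given 25 nM vasopressin for 5 min after 30 min compound exposure (37 °C). AC50 from Hill equation; basal DMSO 0%, vasopressin 100%.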", "values": [
      {"molecule": "Cc1nc2c([nH]1)c(=O)n(C)c(=O)n2Cc1ccco1", "Potency": "inconclusive: 7.94 µM [inhibitor, full curve, poor fit]"},
      {"molecule": "O=C1C=CC2=C3c4cc(O)c(O)cc4CC3(O)COC2=C1O", "note": "(stereo not drawn)", "Potency": "inconclusive: 39.8 µM [inhibitor, single point] and inconclusive: 7.94 µM [inhibitor, full curve, poor fit]"},
      {"molecule": "C[C@@H](CN(C)C)CN1c2ccccc2CCc2ccccc21", "Potency": "inactive"},
      {"molecule": "O=c1[nH]n(-c2ccccn2)c(=O)c2ccccc12", "Potency": "inconclusive: 39.8 µM [inhibitor, single point]"},
      {"molecule": "Cc1ccc(-n2c(N)c(C(=O)N3CCCCC3)sc2=S)cc1", "Potency": "inconclusive: 12.6 µM [inhibitor, partial curve]"},
      {"molecule": "COC(=O)c1cc(OC)c(OC)cc1NC(=O)CN1CCCCC1", "activity, negative = inhibition": "inactive: -1.35%"},
      {"molecule": "O=C(CSc1nc2ccccc2c(=O)n1Cc1ccc(C(=O)NC2CC2)cc1)NCc1ccco1", "activity, negative = inhibition": "inactive: -18.2%"},
      {"molecule": "COc1ccc(CCn2c(C)cc(C(=O)CSc3nnnn3-c3ccccc3)c2C)cc1OC", "Potency": "inconclusive: 3.16 µM [inhibitor, full curve]"},
      {"molecule": "c1ccc(-c2cc(N3CCOCC3)nc(-c3ccccc3)n2)cc1", "Potency": "inconclusive: 1 µM [inhibitor, full curve, poor fit]"},
      {"molecule": "COc1ccc(CCN(Cc2nc3ccccc3c(=O)[nH]2)C(=O)c2ccco2)cc1OC", "Potency": "inconclusive: 10 µM [inhibitor, partial curve]"},
      {"molecule": "Cc1nc(SCC#N)c2c(C)c(C)sc2n1", "Potency": "inconclusive: 5.01 µM [inhibitor, partial curve]"},
      {"molecule": "Cc1nc(SCCO)c2oc3ccccc3c2n1", "Potency": "inconclusive: 10 µM [inhibitor, partial curve]"},
      {"molecule": "O=C(NC1CCN(Cc2ccccc2)CC1)C1CCN(S(=O)(=O)c2cccc3cccnc23)CC1", "Potency": "inconclusive: 6.31 µM [inhibitor, partial curve]"},
      {"molecule": "CCc1c(C#N)c(N)nc(SCC(=O)OCc2ccccc2)c1C#N", "Potency": "active: 31.6 µM"},
      {"molecule": "COc1ccc(OC)c(CCNC(=O)Cn2sc3nc(C)cc(C)c3c2=O)c1", "Potency": "active: 15.8 µM"},
      {"molecule": "Cc1nnc2sc(-c3ccncc3)nn12", "activity, negative = inhibition": "inactive: -20.9%"},
      {"molecule": "CCOc1ccc(N(CC(=O)Nc2ccc(F)c(F)c2)S(=O)(=O)c2c(C)noc2C)cc1", "Potency": "inconclusive: 25.1 µM [inhibitor, single point]"},
      {"molecule": "CC1(C)Cc2nc3sc4c(=O)[nH]cnc4c3cc2CS1", "Potency": "inconclusive: 25.1 µM [inhibitor, partial curve, poor fit]"},
      {"molecule": "Cc1ccc(CC(Cc2nc3ccccc3[nH]2)c2nc3ccccc3[nH]2)cc1", "note": "(stereo not drawn)", "Potency": "inconclusive: 39.8 µM [inhibitor, single point]"},
      {"molecule": "Cc1ccccc1NC(=O)CSc1nnc(-c2ccoc2C)n1CCc1ccccc1", "Potency": "inconclusive: 39.8 µM [inhibitor, single point]"},
      {"molecule": "O=S(=O)(Nc1ccc2c(c1)OCCO2)c1cccs1", "Potency": "inconclusive: 12.6 µM [inhibitor, partial curve]"},
      {"molecule": "CCOc1cccc2cc(C(=O)N3CCN(C/C=C/c4ccccc4)CC3)c(=O)oc12", "Potency": "inconclusive: 0.794 µM [inhibitor, full curve, poor fit]"},
      {"molecule": "COc1ccc(N2CCN(C(=O)CSc3nnnn3-c3ccc4c(c3)OCCO4)CC2)cc1", "Potency": "inconclusive: 39.8 µM [inhibitor, single point]"},
      {"molecule": "Cc1cccc2cc3c(nc12)SC(=NCC1CCCO1)N(Cc1ccco1)C3", "note": "(stereo not drawn)", "Potency": "inconclusive: 39.8 µM [inhibitor, single point]"},
      {"molecule": "Cc1ccccc1NC(=O)Cn1c(C)nc2ccc(NC(=O)C3CC3)cc2c1=O", "activity, negative = inhibition": "inactive: -5.64%"},
      {"molecule": "Oc1cnc2ccccc2c1CN1CCOCC1", "activity, negative = inhibition": "inconclusive: -30.5% [inhibitor]"},
      {"molecule": "CC(=O)Oc1ccc(C(c2ccc(OC(C)=O)cc2)c2ccccn2)cc1", "Potency": "inactive"},
      {"molecule": "CN(C)c1ccc(-c2cc(N(C)Cc3ccco3)ncn2)cc1", "Potency": "inconclusive: 31.6 µM [inhibitor, single point]"},
      {"molecule": "N#C[C@@H](N=Nc1ccccc1C(=O)O)C(N)=O", "activity, negative = inhibition": "inactive: -0.481% [at 11.5 µM]"},
      {"molecule": "Cn1c(Cc2csc(N)n2)nnc1SC/C=C/c1ccccc1", "Potency": "inconclusive: 15.8 µM [inhibitor, partial curve]"},
      {"molecule": "Cc1cc2nc(C)n3c4ccccc4nc3n2n1", "activity, negative = inhibition": "inactive: -28.5%"},
      {"molecule": "Fc1ccc(-c2cc(C(F)(F)F)nc(-n3cncn3)n2)cc1", "Potency": "inconclusive: 3.98 µM [inhibitor, single point]"},
      {"molecule": "COc1ccc(Cl)cc1S(=O)(=O)N1CCN=C1C", "Potency": "inconclusive: 39.8 µM [inhibitor, partial curve]"},
      {"molecule": "CC(=O)c1c(C)[nH]c(C(=O)OCC(=O)Nc2cc(C)on2)c1C", "Potency": "inconclusive: 5.01 µM [inhibitor, partial curve]"},
      {"molecule": "CC(OC(=O)c1cc2sccc2n1C)C(=O)NCc1cccs1", "note": "(stereo not drawn)", "Potency": "inconclusive: 3.16 µM [inhibitor, single point]"},
      {"molecule": "COc1ccc(-c2nnn(CC(=O)N(CC(=O)NCCC(C)C)c3ccccc3)n2)cc1OC", "Potency": "inconclusive: 3.98 µM [inhibitor, partial curve]"},
      {"molecule": "Cc1ccc2c(c1)c(C)c(C)n2CC(O)Cn1nnc2ccccc21", "note": "(stereo not drawn)", "Potency": "inconclusive: 39.8 µM [inhibitor, single point]"},
      {"molecule": "CCc1ccc(C=NC23CN4CN(CN(C4)C2)C3)s1", "Potency": "inconclusive: 25.1 µM [inhibitor, partial curve]"},
      {"molecule": "COc1cc2[nH]c(=S)n(CCCN3CCOCC3)c(=O)c2cc1OC", "Potency": "inconclusive: 25.1 µM [inhibitor, partial curve, poor fit]"},
      {"molecule": "CCOC(=O)N1CCN(Cc2nc(N)nc(Nc3ccc(Oc4ccccc4)cc3)n2)CC1", "Potency": "inconclusive: 25.1 µM [inhibitor, single point]"},
      {"molecule": "CSc1ccc(C2C(C#N)=C(N)Oc3c2ccc(=O)c2c(C)oc(C)c32)cc1", "note": "(stereo not drawn)", "Potency": "inconclusive: 10 µM [inhibitor, partial curve]"},
      {"molecule": "c1cncc(-c2nc(N3CCCCCC3)c3ccccc3n2)c1", "Potency": "active: 20 µM"},
      {"molecule": "Cc1ccc(NC(=O)C2CCN(S(=O)(=O)c3cccc4cccnc34)CC2)nc1", "Potency": "active: 31.6 µM"}
    ]}
  ]
}
